# Assay results as given in the supplement of paper PMC8728848.
# Some of the results follow.
# B1: Tap1 (Sordaria macrospora), Q50IV4 (protein)
# chain: MSHHHHHHHHYTLHLRLINDTSDTLTLVEQTSWWGKNTIWSQVRSTGVHVLSMAASGSSGMLRFQTSKGDFFAVAVGVHNYKRWCDVLVDTADEAPLTKLHPKYYDDKDAKYQALWAQASEFEAKSKSGKTVRIKFYQADGNVLRATVEYL
# Experiments:
# Assay in all cases: glycan array binding signal (z-score within array); higher = stronger binding
# Conditions in all cases: glycan notation: IUPAC condensed, linker removed
# Gal(b1-3)GalNAc = target: Gal(b1-3)GalNAc
# Outline: (§1)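 Arrays were curated from the Consortium for Functional Glycomics database, 3228 in total, and kept only where the protein sequence was available. Binding is expressed as a within-array Z-score. This score was averaged across arrays of the same protein sequence at different concentrations or buffers and across linkers, and negative values can be read as non-binding.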
# [1] = target: Gal(b1-3)GalNAc(a1-3)[Fuc(a1-2)]Gal(b1-4)Glc
# Outline: as §1
# [2] = target: Gal(b1-3)GalNAc(a1-3)[Fuc(a1-2)]Gal(b1-4)GlcNAc
# Outline: as §1
# [3] = target: Gal(b1-3)GalNAc(b1-3)Gal(a1-4)Gal(b1-4)Glc
# Outline: as §1
# [4] = target: Gal(b1-3)GalNAc(b1-4)Gal(b1-4)Glc
# Outline: as §1
# [5] = target: Gal(b1-3)GalNAc(b1-4)[Neu5Ac(a2-3)]Gal(b1-4)Glc
# Outline: as §1
# Gal(b1-3)GlcNAc = target: Gal(b1-3)GlcNAc
# Outline: as §1
# [6] = target: Gal(b1-3)GlcNAc(a1-6)Gal(b1-4)GlcNAc
# Outline: as §1
# [7] = target: Gal(b1-3)GlcNAc(b1-2)Man(a1-3)[Gal(b1-3)GlcNAc(b1-2)Man(a1-6)]Man(b1-4)GlcNAc(b1-4)GlcNAc
# Outline: as §1
# [8] = target: Gal(b1-3)GlcNAc(b1-2)Man(a1-3)[Gal(b1-3)GlcNAc(b1-2)Man(a1-6)]Man(b1-4)GlcNAc(b1-4)[Fuc(a1-6)]GlcNAc
# Outline: as §1
# [9] = target: Gal(b1-3)GlcNAc(b1-2)[Gal(b1-3)GlcNAc(b1-6)]Man(a1-6)[Gal(b1-3)GlcNAc(b1-2)Man(a1-3)]Man(b1-4)GlcNAc(b1-4)GlcNAc
# Outline: as §1
# [10] = target: Gal(b1-3)GlcNAc(b1-3)Gal(b1-3)GlcNAc
# Outline: as §1
# [11] = target: Gal(b1-3)GlcNAc(b1-3)Gal(b1-4)Glc
# Outline: as §1
# [12] = target: Gal(b1-3)GlcNAc(b1-3)Gal(b1-4)GlcNAc
# Outline: as §1
# [13] = target: Gal(b1-3)GlcNAc(b1-3)Gal(b1-4)GlcNAc(b1-6)[Gal(b1-3)GlcNAc(b1-3)]Gal(b1-4)Glc
# Outline: as §1
# [14] = target: Gal(b1-3)GlcNAc(b1-3)Gal(b1-4)[Fuc(a1-3)]GlcNAc(b1-6)[Gal(b1-3)GlcNAc(b1-3)]Gal(b1-4)Glc
# Outline: as §1
# [15] = target: Gal(b1-3)GlcNAc(b1-3)GalNAc
# Outline: as §1
# [16] = target: Gal(b1-3)GlcNAc(b1-6)Gal(b1-4)GlcNAc
# Outline: as §1
# [17] = target: Gal(b1-3)[Fuc(a1-4)]GlcNAc
# Outline: as §1
# [18] = target: Gal(b1-3)[Fuc(a1-4)]GlcNAc(b1-2)Man(a1-3)[Gal(b1-3)[Fuc(a1-4)]GlcNAc(b1-2)Man(a1-6)]Man(b1-4)GlcNAc(b1-4)GlcNAc
# Outline: as §1
# [19] = target: Gal(b1-3)[Fuc(a1-4)]GlcNAc(b1-2)Man(a1-3)[Gal(b1-3)[Fuc(a1-4)]GlcNAc(b1-2)Man(a1-6)]Man(b1-4)GlcNAc(b1-4)[Fuc(a1-6)]GlcNAc
# Outline: as §1
# [20] = target: Gal(b1-3)[Fuc(a1-4)]GlcNAc(b1-3)Gal(b1-3)[Fuc(a1-4)]GlcNAc
# Outline: as §1
# [21] = target: Gal(b1-3)[Fuc(a1-4)]GlcNAc(b1-3)Gal(b1-4)GlcNAc
# Outline: as §1
# [22] = target: Gal(b1-3)[Fuc(a1-4)]GlcNAc(b1-3)Gal(b1-4)[Fuc(a1-3)]GlcNAc
# Outline: as §1
# [23] = target: Gal(b1-3)[GlcNAc(b1-6)]GalNAc
# Outline: as §1
# [24] = target: Gal(b1-3)[Neu5Ac(a2-6)]GalNAc
# Outline: as §1
# [25] = target: Gal(b1-3)[Neu5Ac(a2-6)]GlcNAc(b1-6)Gal(b1-4)Glc
# Outline: as §1
# [26] = target: Gal(b1-3)[Neu5Ac(b2-6)]GalNAc
# Outline: as §1
# Gal(b1-4)Gal = target: Gal(b1-4)Gal
# Outline: as §1
# [27] = target: Gal(b1-4)GalNAc(a1-3)[Fuc(a1-2)]Gal(b1-4)GlcNAc
# Outline: as §1
# [28] = target: Gal(b1-4)GalNAc(b1-3)[Fuc(a1-2)]Gal(b1-4)GlcNAc
# Outline: as §1
# Gal(b1-4)Glc = target: Gal(b1-4)Glc
# Outline: as §1
# Gal(b1-4)Glc6S = target: Gal(b1-4)Glc6S
# Outline: as §1
# Gal(b1-4)GlcNAc = target: Gal(b1-4)GlcNAc
# Outline: as §1
# [29] = target: Gal(b1-4)GlcNAc(a1-6)Gal(b1-4)GlcNAc
# Outline: as §1
# [30] = target: Gal(b1-4)GlcNAc(b1-2)Man(a1-3)Man(b1-4)GlcNAc(b1-4)GlcNAc
# Outline: as §1
# [31] = target: Gal(b1-4)GlcNAc(b1-2)Man(a1-3)[Gal(b1-4)GlcNAc(b1-2)Man(a1-6)]Man(b1-4)GlcNAc(b1-4)GlcNAc
# Outline: as §1
# [32] = target: Gal(b1-4)GlcNAc(b1-2)Man(a1-3)[Gal(b1-4)GlcNAc(b1-2)Man(a1-6)]Man(b1-4)GlcNAc(b1-4)[Fuc(a1-6)]GlcNAc
# Outline: as §1
# [33] = target: Gal(b1-4)GlcNAc(b1-2)Man(a1-3)[Gal(b1-4)GlcNAc(b1-2)][GlcNAc(b1-4)]Man(b1-4)GlcNAc(b1-4)GlcNAc
# Outline: as §1
# [34] = target: Gal(b1-4)GlcNAc(b1-2)Man(a1-3)[GlcNAc(b1-2)Man(a1-6)]Man(b1-4)GlcNAc(b1-4)GlcNAc
# Outline: as §1
# [35] = target: Gal(b1-4)GlcNAc(b1-2)Man(a1-3)[Man(a1-6)]Man(b1-4)GlcNAc(b1-4)GlcNAc
# Outline: as §1
# [36] = target: Gal(b1-4)GlcNAc(b1-2)Man(a1-6)Man(b1-4)GlcNAc(b1-4)GlcNAc
# Outline: as §1
# [37] = target: Gal(b1-4)GlcNAc(b1-2)Man(a1-6)[GlcNAc(b1-2)Man(a1-3)]Man(b1-4)GlcNAc(b1-4)GlcNAc
# Outline: as §1
# [38] = target: Gal(b1-4)GlcNAc(b1-2)Man(a1-6)[Man(a1-3)]Man(b1-4)GlcNAc(b1-4)GlcNAc
# Outline: as §1
# [39] = target: Gal(b1-4)GlcNAc(b1-2)[Gal(b1-4)GlcNAc(b1-4)]Man(a1-3)[Gal(b1-4)GlcNAc(b1-2)Man(a1-6)]Man(b1-4)GlcNAc(b1-4)GlcNAc
# Outline: as §1
binder,measurement,setting,value
B1,glycan array binding signal (z-score),Gal(b1-3)GalNAc,3.97
same,glycan array binding signal (z-score),[1],0.824
same,glycan array binding signal (z-score),[2],1.14
same,glycan array binding signal (z-score),[3],-0.214
same,glycan array binding signal (z-score),[4],-0.206
same,glycan array binding signal (z-score),[5],-0.256
same,glycan array binding signal (z-score),Gal(b1-3)GlcNAc,-0.21
same,glycan array binding signal (z-score),[6],-0.254
same,glycan array binding signal (z-score),[7],-0.198
same,glycan array binding signal (z-score),[8],-0.21
same,glycan array binding signal (z-score),[9],-0.179
same,glycan array binding signal (z-score),[10],-0.236
same,glycan array binding signal (z-score),[11],-0.23
same,glycan array binding signal (z-score),[12],-0.228
same,glycan array binding signal (z-score),[13],-0.217
same,glycan array binding signal (z-score),[14],-0.238
same,glycan array binding signal (z-score),[15],2.1
same,glycan array binding signal (z-score),[16],-0.249
same,glycan array binding signal (z-score),[17],-0.231
same,glycan array binding signal (z-score),[18],0.127
same,glycan array binding signal (z-score),[19],-0.07
same,glycan array binding signal (z-score),[20],-0.171
same,glycan array binding signal (z-score),[21],-0.252
same,glycan array binding signal (z-score),[22],-0.248
same,glycan array binding signal (z-score),[23],1.91
same,glycan array binding signal (z-score),[24],4.09
same,glycan array binding signal (z-score),[25],-0.258
same,glycan array binding signal (z-score),[26],-0.25
same,glycan array binding signal (z-score),Gal(b1-4)Gal,-0.212
same,glycan array binding signal (z-score),[27],-0.225
same,glycan array binding signal (z-score),[28],-0.229
same,glycan array binding signal (z-score),Gal(b1-4)Glc,-0.217
same,glycan array binding signal (z-score),Gal(b1-4)Glc6S,-0.214
same,glycan array binding signal (z-score),Gal(b1-4)GlcNAc,-0.237
same,glycan array binding signal (z-score),[29],-0.253
same,glycan array binding signal (z-score),[30],-0.2
same,glycan array binding signal (z-score),[31],-0.224
same,glycan array binding signal (z-score),[32],-0.213
same,glycan array binding signal (z-score),[33],-0.232
same,glycan array binding signal (z-score),[34],-0.2
same,glycan array binding signal (z-score),[35],-0.084
same,glycan array binding signal (z-score),[36],-0.227
same,glycan array binding signal (z-score),[37],-0.245
same,glycan array binding signal (z-score),[38],-0.206
same,glycan array binding signal (z-score),[39],-0.259
